{
  "source": "paper PMC4336329",
  "about": "(PLoS ONE, 2015)",
  "note": "The whole screen tested about 310,000 compounds, of which about 14,000 (4.5%) showed an effect of 50% or more. The effect is printed as a negative number. The list shows a part of the results.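 Note: peak tail current of the secondary pulse compared with the same well before compound.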",
  "data": [
    {"target": "human ether-à-go-go-related gene (hERG) potassium channel (human, UniProt Q12809)", "sequence (Q12809 whole entry, looked up)": "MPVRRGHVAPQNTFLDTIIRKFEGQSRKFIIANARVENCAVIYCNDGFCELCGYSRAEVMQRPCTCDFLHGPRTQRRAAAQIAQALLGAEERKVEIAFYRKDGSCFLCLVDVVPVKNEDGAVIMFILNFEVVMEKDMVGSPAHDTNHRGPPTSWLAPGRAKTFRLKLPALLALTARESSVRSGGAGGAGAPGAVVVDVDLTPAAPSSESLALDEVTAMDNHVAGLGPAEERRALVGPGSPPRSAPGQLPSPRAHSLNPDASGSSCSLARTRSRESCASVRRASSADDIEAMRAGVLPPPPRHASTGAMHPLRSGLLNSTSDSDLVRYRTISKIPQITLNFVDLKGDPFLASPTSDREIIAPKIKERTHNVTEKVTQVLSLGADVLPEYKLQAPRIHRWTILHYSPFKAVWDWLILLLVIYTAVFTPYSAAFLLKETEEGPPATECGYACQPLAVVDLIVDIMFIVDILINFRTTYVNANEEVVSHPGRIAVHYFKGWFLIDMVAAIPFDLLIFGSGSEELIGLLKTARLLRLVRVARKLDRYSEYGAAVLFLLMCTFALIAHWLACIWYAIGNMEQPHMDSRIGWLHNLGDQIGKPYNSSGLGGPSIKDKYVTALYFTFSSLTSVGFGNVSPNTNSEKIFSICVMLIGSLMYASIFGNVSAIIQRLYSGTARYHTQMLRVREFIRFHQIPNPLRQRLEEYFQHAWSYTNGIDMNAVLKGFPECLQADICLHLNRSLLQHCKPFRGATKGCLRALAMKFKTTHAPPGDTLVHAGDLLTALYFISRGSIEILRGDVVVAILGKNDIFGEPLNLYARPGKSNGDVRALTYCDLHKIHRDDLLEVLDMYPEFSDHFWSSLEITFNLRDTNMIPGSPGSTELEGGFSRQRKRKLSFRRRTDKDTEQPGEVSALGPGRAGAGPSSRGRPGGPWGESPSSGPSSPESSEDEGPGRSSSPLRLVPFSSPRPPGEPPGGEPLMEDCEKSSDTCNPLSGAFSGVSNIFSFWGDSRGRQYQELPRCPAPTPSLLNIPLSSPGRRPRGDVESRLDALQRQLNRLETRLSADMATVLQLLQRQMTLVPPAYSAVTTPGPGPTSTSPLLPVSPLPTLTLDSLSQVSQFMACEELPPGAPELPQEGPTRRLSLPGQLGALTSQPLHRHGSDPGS", "assay": "primary screen, population patch clamp on CHO cells stably expressing hERG", "units": {"hERG current change (%, negative = inhibition) at 10uM": "%"}, "values": [
      {"smiles": "N#Cc1cc([N+](=O)[O-])cnc1N(CCO)CCO", "hERG current change (%, negative = inhibition) at 10uM": -1.1},
      {"smiles": "C=CCN(c1ccccc1C(=O)NCC(=O)OCC)S(=O)(=O)c1ccc(C)cc1", "hERG current change (%, negative = inhibition) at 10uM": -3.31},
      {"smiles": "COCCCNC(=S)N1CCN(C(=O)C(=O)Nc2ccc(C(=O)OC)cc2)CC1", "hERG current change (%, negative = inhibition) at 10uM": -14.5},
      {"smiles": "CCCN1CCN(CCCNC(=O)C2CCN(c3nnc(-n4cccc4)s3)CC2)CC1", "hERG current change (%, negative = inhibition) at 10uM": -14.4},
      {"smiles": "O=Cc1ccc(OCC(=O)Nc2ccccc2C(F)(F)F)cc1", "hERG current change (%, negative = inhibition) at 10uM": -7.35},
      {"smiles": "O=C(Nc1cc2c3c(c1)C1CCCC1CN3CC1CCCC21)c1ccc([N+](=O)[O-])cc1", "note": "(stereo not drawn)", "hERG current change (%, negative = inhibition) at 10uM": 4.65},
      {"smiles": "Oc1ccccc1CNc1ccc(OC(F)(F)F)cc1", "hERG current change (%, negative = inhibition) at 10uM": 6.85},
      {"smiles": "CS(=O)(=O)N(CC(=O)N1CCCC1)c1ccccc1Br", "hERG current change (%, negative = inhibition) at 10uM": 11.1},
      {"smiles": "CCN(C(=O)CSc1nnc(NCc2ccccc2)s1)C1CCS(=O)(=O)C1", "note": "(stereo not drawn)", "hERG current change (%, negative = inhibition) at 10uM": 8.38},
      {"smiles": "CC(C)N(C(=O)C[n+]1ccsc1N)c1ccccc1.[Cl-]", "hERG current change (%, negative = inhibition) at 10uM": 16.7},
      {"smiles": "Cc1ccc(NC2SC(=O)N(CC(=O)O)C2=O)cc1", "note": "(stereo not drawn)", "hERG current change (%, negative = inhibition) at 10uM": 3.97},
      {"smiles": "Cc1cc(Cl)ccc1NC(=S)Nc1cccnc1", "hERG current change (%, negative = inhibition) at 10uM": -0.381},
      {"smiles": "O=C(/C=C/c1ccccc1)Oc1coc(CSc2ncccn2)cc1=O", "hERG current change (%, negative = inhibition) at 10uM": -31.5},
      {"smiles": "Cc1ccccc1CNC(=O)c1ccccc1N", "hERG current change (%, negative = inhibition) at 10uM": -2.89},
      {"smiles": "O=C(COc1ccc(F)cc1)NCC1CCCO1", "note": "(stereo not drawn)", "hERG current change (%, negative = inhibition) at 10uM": -7.21},
      {"smiles": "CCOc1ccc(-c2cc(N)n(S(=O)(=O)c3cccc4nsnc34)n2)cc1", "hERG current change (%, negative = inhibition) at 10uM": -0.861},
      {"smiles": "CN1/C(=C/C(=O)c2ccc(Cl)cc2)Sc2cc3c(cc21)OCO3", "hERG current change (%, negative = inhibition) at 10uM": 1.29},
      {"smiles": "CCCn1c(N)c(C(=O)CSc2n[nH]c(-c3ccccc3F)n2)c(=O)n(C)c1=O", "hERG current change (%, negative = inhibition) at 10uM": -9.83},
      {"smiles": "CCN1C(=O)CC(C(=O)O)SC1=Nc1ccc(OC)cc1", "note": "(stereo not drawn)", "hERG current change (%, negative = inhibition) at 10uM": -1.5},
      {"smiles": "COc1ccc(CC(=O)NCc2nn(-c3ccccc3)nc2C)cc1OC", "hERG current change (%, negative = inhibition) at 10uM": 3.42},
      {"smiles": "CCCCc1cc(=O)oc2cc(C)cc(OC(C)C(=O)NCC3CCC(C(=O)O)CC3)c12", "note": "(stereo not drawn)", "hERG current change (%, negative = inhibition) at 10uM": 11.3},
      {"smiles": "OC(COC(c1ccccc1)c1ccccc1)CN1CCOCC1", "note": "(stereo not drawn)", "hERG current change (%, negative = inhibition) at 10uM": -5.77},
      {"smiles": "CCN1CCN(c2nc3c(C)cccn3c(=O)c2/C=C(\\C#N)S(=O)(=O)c2ccc(Cl)cc2)CC1", "hERG current change (%, negative = inhibition) at 10uM": -44.9},
      {"smiles": "COc1ccc(C(C(=O)NCCC(C)C)N(CCN2CCOCC2)C(=O)Cn2nnc3ccccc32)c(OC)c1", "note": "(stereo not drawn)", "hERG current change (%, negative = inhibition) at 10uM": -24.3},
      {"smiles": "COc1cc(NC(=O)C2=C(N3CCOCC3)/C(=C/c3ccc(Cl)cc3)CC2)cc(OC)c1OC", "hERG current change (%, negative = inhibition) at 10uM": -6.95},
      {"smiles": "O=C(O)C(Cc1ccccc1)N1Cc2ccccc2C1=O", "note": "(stereo not drawn)", "hERG current change (%, negative = inhibition) at 10uM": -3.47},
      {"smiles": "O=C(Nc1ccc(OC(F)(F)F)cc1)c1ccc2ccccc2n1", "hERG current change (%, negative = inhibition) at 10uM": 13.6},
      {"smiles": "CCCC(=O)C1=C(O)C(C(=O)OC)C(C)(C)CC1=NCCCCCC(=O)O", "note": "(stereo not drawn)", "hERG current change (%, negative = inhibition) at 10uM": 13.9},
      {"smiles": "CCCC1CC(C)(/C(C)=N\\NC(N)=S)OC1=O", "note": "(stereo not drawn)", "hERG current change (%, negative = inhibition) at 10uM": 12.4},
      {"smiles": "O=C(CNS(=O)(=O)c1ccc(F)cc1)N1CCN(c2ccccc2)CC1", "hERG current change (%, negative = inhibition) at 10uM": -11.7},
      {"smiles": "COc1ccccc1/C=C1/C(=N/O)C2CCN1CC2", "hERG current change (%, negative = inhibition) at 10uM": 0.383},
      {"smiles": "CCCCn1c(O)c(C(C)=NCc2ccc3c(c2)OCO3)c(=O)[nH]c1=O", "hERG current change (%, negative = inhibition) at 10uM": -2.46},
      {"smiles": "Cc1cc(NC(=O)/C=C/c2ccc(F)cc2)n(-c2nc3ccccc3[nH]2)n1", "hERG current change (%, negative = inhibition) at 10uM": -3.69},
      {"smiles": "CN(C)CCCN(CCCNC(=O)/C=N/O)Cc1ccccc1", "hERG current change (%, negative = inhibition) at 10uM": 1.31},
      {"smiles": "O=S(=O)(Nc1ccccc1)c1ccc(-c2csnn2)cc1", "hERG current change (%, negative = inhibition) at 10uM": -7.1},
      {"smiles": "CCN(CC)c1ccc(C=NCCc2ccc(S(N)(=O)=O)cc2)cc1", "hERG current change (%, negative = inhibition) at 10uM": 9.89},
      {"smiles": "CC(C)(C)CC(=O)NC(=S)Nc1ccccc1C(F)(F)F", "hERG current change (%, negative = inhibition) at 10uM": -6.6},
      {"smiles": "COC(=O)c1ccccc1NC(=S)N1CCN(c2ccccc2)CC1", "hERG current change (%, negative = inhibition) at 10uM": -0.00642},
      {"smiles": "COc1ccc(Cl)cc1Nc1nc(N)c2ccccc2n1.Cl", "hERG current change (%, negative = inhibition) at 10uM": 20.4},
      {"smiles": "Cc1ccc(C2=NS(=O)(=O)N(C)C(C(=O)Nc3cc(C)n(CC(=O)N4CCCCC4)n3)=C2)cc1", "hERG current change (%, negative = inhibition) at 10uM": 10.3},
      {"smiles": "CCCOc1ccc(C2C(=O)N(C3CCCCC3)CC(=O)N2CCCOCC)cc1OC", "note": "(stereo not drawn)", "hERG current change (%, negative = inhibition) at 10uM": -8.57},
      {"smiles": "CCOC(=O)C1C(C)=CC(=O)CC1c1ccco1", "note": "(stereo not drawn)", "hERG current change (%, negative = inhibition) at 10uM": 9.3},
      {"smiles": "CN(C)S(=O)(=O)c1c(Cl)cccc1Cl", "hERG current change (%, negative = inhibition) at 10uM": 19.7},
      {"smiles": "CN(C)C(=S)Nc1cccc(C(F)(F)F)c1", "hERG current change (%, negative = inhibition) at 10uM": 5.67},
      {"smiles": "O=C(O)C1CCCN1C(=O)Nc1ccccc1", "note": "(stereo not drawn)", "hERG current change (%, negative = inhibition) at 10uM": 4.38},
      {"smiles": "N#Cc1ccccc1S(=O)(=O)c1ccccc1C(=O)Nc1ccccc1", "hERG current change (%, negative = inhibition) at 10uM": 13},
      {"smiles": "Cc1cccc(-n2c(=S)[nH]c3c(oc4ccccc43)c2=O)c1", "hERG current change (%, negative = inhibition) at 10uM": 26.6},
      {"smiles": "CC(C)CCC(CCN1CCOCC1)c1ccc2c(c1)OCO2.Cl", "note": "(stereo not drawn)", "hERG current change (%, negative = inhibition) at 10uM": -72.9},
      {"smiles": "CCN1/C(=C2/SC(=S)N(NC(C)=O)C2=O)Sc2ccccc21", "hERG current change (%, negative = inhibition) at 10uM": 23.9},
      {"smiles": "COc1ccc(S(=O)(=O)N2CCN(C(=O)C3CC3)CC2)cc1Br", "hERG current change (%, negative = inhibition) at 10uM": -36},
      {"smiles": "O=C1CC(c2ccccc2)CC(O)=C1C=NC1CCCCCC1", "note": "(stereo not drawn)", "hERG current change (%, negative = inhibition) at 10uM": 6.58},
      {"smiles": "O=C(NC1=NCCS1)c1ccc(Cl)c(S(=O)(=O)N2CCCC2)c1", "hERG current change (%, negative = inhibition) at 10uM": -2.24},
      {"smiles": "CCN(CC)S(=O)(=O)c1cc(NC(=O)CN2C(=O)NC3(CCCc4ccccc43)C2=O)ccc1C", "note": "(stereo not drawn)", "hERG current change (%, negative = inhibition) at 10uM": -1.57},
      {"smiles": "CCN1CCN(C(=S)c2ccc(OCC(=O)NCc3ccccc3)cc2)CC1", "hERG current change (%, negative = inhibition) at 10uM": -3.65},
      {"smiles": "O=C(O)C(=O)O.OC(COC1CCCCC1)C[NH+]1CCCCC1", "note": "(stereo not drawn)", "hERG current change (%, negative = inhibition) at 10uM": 1.4},
      {"smiles": "O=C(O)c1ccc(NC2=C(n3nnc4ccccc43)C(=O)c3ccccc3C2=O)cc1", "hERG current change (%, negative = inhibition) at 10uM": 3.97},
      {"smiles": "CC1CC(C)CN(CCCNC(=O)c2ccc3c(SCC(=O)O)c4c(nc3c2)CCC4)C1", "note": "(stereo not drawn)", "hERG current change (%, negative = inhibition) at 10uM": 8.49}
    ]}
  ]
}
